The list shows a part of the results. At the low end of the ranking, values are background and their order means little.
biological target: SIX1-Q177R homeodomain (UniProt Q15475); assay: universal protein binding microarray; conditions: Universal all-10-mer PBM (8x60K, AMADID 030236), 300 nM GST-tagged protein, Alexa Fluor 488 anti-GST; buffer, salt, pH and temperature not stated; high values mean tight binding; most listed sequences are background and not binding sites; double strand, one strand shown

Sequence	binding signal [E-score]
CACCGGAA	0.288
CACTAAGA	0.17
AGGCCATA	-0.00853
GCGGAGCC	-0.145
ACCTCCAA	-0.0469
ACCCCATC	0.245
CTGTCGTA	-0.137
CACGGTAC	0.186
GCGATCGA	-0.063
ATAAGAAG	-0.156
GTAAAGGA	-0.0804
GACACGCC	0.444
GAGGTAGA	-0.0516
ATACAATA	-0.0298
AAAGATCG	-0.119
CCGTGGTC	-0.172
ATCCCGAG	0.0949
ATACCACG	0.216
AGGCCTAG	-0.173
AGCTTAAG	-0.0738
CACTGTGA	0.177
AAGTGGCA	0.00348
GGGAGCCC	-0.133
AAAAAGCG	-0.0947
ACACTTTC	0.354

Sequence	binding signal [E-score]
AATCCAGT	-0.185
ACATGTCG	-0.0917
ACCAAAAG	-0.146
ATGTTCGA	-0.0912
ACGGGAGC	-0.0173
AAGTAGTG	0.27
CGGGGCAC	0.145
CAACTTGC	-0.113
GAAGTAGA	-0.0925
CTAGTCGC	0.0377
GAGCAACA	-0.0136
GGCCTATA	-0.0243
ACTTCCAC	0.0553
GCGAGACC	-0.181
CCGTGTGA	0.299
GGAGGGCA	-0.00359
GAGCTTCA	-0.192
CAGCGAAG	-0.132
CGCCCACC	0.0748
CAACCTCG	-0.0524
CCACGAAG	0.0936
CATGTCTA	-0.0915
AGGATACG	0.108
ACTGCACT	-0.0731
CTTTTGGA	-0.116

Sequence	binding signal [E-score]
GATGCATA	-0.137
AGTACACT	0.406
GTTGAGCA	-0.0993
CGAGAGAC	-0.0128
CGCAGCTA	-0.292
AGTTCTCA	-0.252
CAATGCAA	-0.0317
CTCCTTTC	0.12
AACGATTA	-0.0282
ACCAACAT	-0.0965
AGCTTACA	0.139
CCCCAAAA	0.0915
CCCTATCG	-0.0506
ATACCCTC	0.234
AACGCAGG	-0.165
CGCGCCAC	-0.13
ACTAACGA	-0.039
AGAGCAGG	-0.031
CCCGAAAA	0.103
AGCCCCAA	-0.197
CGGCAGCC	0.00382
CGAGCAAA	-0.292
GGCAGCAA	-0.243
GTATAAGA	0.0387
TACAAGAA	-0.273

Sequence	binding signal [E-score]
GGGCACCA	0.0836
ATGATCCC	0.251
AAGATAGC	-0.283
CTACGCCA	0.0179
ATATGACG	-0.16
GAACAATA	-0.0552
ACACAAGG	0.155
ACGATCAG	0.00326
TATATCCA	-0.107
GTAGTAAC	-0.0446
AAGCACTG	-0.0761
CCCATTCG	-0.107
CATGGCGA	-0.16
ACCTACGC	0.08
GCTACGTA	0.0284
ATTTAACC	0.0565
GTGTCGAA	0.448
AACGAAAC	-0.0413
GAATACAA	-0.117
CAGCTATA	0.0012
AGCTTTGA	-0.16
CCCCATTA	0.0622
TATGCTCA	-0.124
CCCCAGGA	0.173
CGGGGTCC	0.241

Sequence	binding signal [E-score]
ACTTTCCC	-0.0132
CTGAACGA	-0.0754
ACTGAACG	-0.0395
CACAGGGC	-0.213
TGAGACAA	-0.116
GCAGAAAC	-0.144
ATACGGTC	-0.0513
CCATGTAC	0.0995
CCGAAGAG	-0.189
ACTGCGTA	0.0362
ACAGGCGT	-0.0638
AACCGGCT	0.0327
AAGAACAA	-0.0767
ATAAATAA	-0.142
AGGAGTAT	0.168
AGCAGCAA	-0.198
CATTGAGG	-0.207
GTACACCA	0.485
CCTGCACC	0.16
ACATTCGA	-0.32
AACTAAAA	-0.0709
ATAAACAC	0.365
AGCTATAA	-0.082
CCCGACGA	0.0413
CGACCTCC	0.0382

Sequence	binding signal [E-score]
AAAGTCCG	-0.0288
TCAGGCAA	-0.107
ATTCTTTG	-0.0728
TTGCCAAA	-0.0705
ACGAATCC	0.143
ACTGTTAT	-0.249
CTAATGCC	-0.142
CAGCCTAC	-0.0633
CCGAACCA	0.0215
AAGTGGGA	-0.0859
TAGCAACA	0.0936
ACCTCCGA	0.172
CTCGGAAC	-0.00483
CAAATCCA	-0.153
TAACACAA	0.216
CTCTTTAC	-0.0821
CGTACCAC	-0.192
CGCCCCCG	0.13
AGTAGCAC	0.105
AATGGGAA	-0.234
GACTCGCA	-0.0592
AGCGCCGC	0.0139
CTACTATA	-0.164
AGGCTGGA	-0.193
ATAGCCTA	-0.0733

Sequence	binding signal [E-score]
GAATCCTA	-0.216
AACGTGCT	-0.0849
CATAACAG	-0.208
CTCCGTCC	-0.11
AATCATGA	-0.196
ATGCGTTA	0.0192
GGGCAGTA	-0.0958
ACTCACAG	-0.1
TCTAACAA	-0.243
ACTCTCAC	-0.0145
CGGACAGC	-0.237
ATGAACAC	0.4
CTCGCACA	-0.0156
CCCCCTGA	0.277
CTTCGATA	0.0255
ACATACAT	-0.22
CTGGTCTC	-0.112
ATCTCTAC	-0.098
AGCATTCG	-0.173
ACAAATAT	-0.0398
GGGGCTAA	0.0859
CATGCACA	-0.013

Reference: paper PMC10668032
